Data on 167 variants can be found in the RNAGym collection of RNA variant scans (doi:10.1093/nar/gkz1192).

The source gives no read counts; variants with many changes may rest on few reads.

B1: CPEB3 Ribozyme (parent)
chain: UAACAGGGGGCCACAGCAGAAGCGUUCACGUCGCAGCCCCUGUCAGAUUCUGGUGAAUCUGCGAAUUCUGCUGUAUAUCUC

In the data set the parent is B1. The data set can be described thus: self-cleavage, relative activity (ratio to wild type); higher = more cleavage; in vitro, sequencing. Summed up: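 CPEB3 self-cleaving ribozyme mutant libraries were made by rounds of error-prone PCR, barcoded, and transcribed in vitro with T7 RNA polymerase for 5 hours at 37°C. Cleavage occurred during transcription and a 15 min DNase I step before EDTA stop. RNAs were reverse transcribed with template switching and Illumina-sequenced, with DNA sequencing mapping barcodes to variants. Relative activity is the variant's cleaved/total read fraction divided by wild type's (minimum 5 reads), averaged across three batches.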
Consider A35G U41C U43C C44U U51A C62U U72A, for which the self-cleavage is 0.17. As for A35U A45C A47U U76A U78A, the figure is 0.07; as for A35C A45G A77U, 0.4. As for A35G A65G U74C U80C, the figure is 1.27.

On to C34U U67C A75U, for which the self-cleavage was determined as 0.1. To A35G G61U U76C belongs 0.93; to A35G U43A U48C A64U, 0.99.

In the case of A35C C39U A56G U72C, the self-cleavage is 0.8. With A35G U43A U54G U78C U80A, the self-cleavage was found to be 1.28. To A35G U48C U69C belongs 0.73; to A35G A64G U72A, 1.34; to A35C A45C A47G U72C U80C, 0.08.

Take A35G C40U U60A: the self-cleavage worked out at 0.75.

A35G U69C A77U: the self-cleavage came out at 1.06. For A35G U41C G61A, the self-cleavage turned out to be 1.17. Regarding A35G A45G A64U U72A, the self-cleavage is 0.64.

For the variant A35G U43C U67C U69C U74C, the self-cleavage amounted to 0.15. With A35G U43C A57G, the self-cleavage turned out to be 1.24. To A35G A56G U60A U74C U78C belongs 1.19; to A35G C40A U54C A65U U76C, 0.11; to A35G U49C U60A U74A, 0.21.

In the case of A35G A64G U69A U80C, the self-cleavage was determined as 0.58. With A35G U41A U43C A47G, the self-cleavage was 0.29. A35G A45G A65G U66C: the self-cleavage was found to be 0.32. To A35G A47G C59U A64U belongs 0.66; to C34U U41C A75G, 0.42. For the variant A35G U43A U69A, the self-cleavage worked out at 0.69.

Regarding A35G A45U A65G U72A, the self-cleavage was found to be 0.58. As for A35G U41C U48C A56G U60C A77U, the figure is 0.3. For A35G U51C A65G, the self-cleavage is 1.04. As to A35G U43C U54C U60A U76C, the self-cleavage turned out to be 0.44. As for A35G C38A U67C, the figure is 0.19; as for A35G C38A A56U C71A U72A, 0.17; as for C34U U41C A65G U74C, 0.12. For C34U U43A A56U, the self-cleavage came out at 0.22. As for A35G U41A U72A U74A, the figure is 0.95; as for A35G U43A U72C, 1.24. As for C34U U41G U49C, the figure is 0.17; as for A35G U51G U58C, 1.07. Regarding C34U U67C U76C, the self-cleavage is 0.17. A35G U41A U51G U54A: the self-cleavage is 0.49. As for A35G A56U A57G A64G, the figure is 1.07. As for A35G A45U G63A U76A, the figure is 1.38. As for A35G A47G U72G, the figure is 1.25; as for A35G A47G U72A, 1.03. A35G A64U U72C: the self-cleavage was 0.93.

In the case of A35G U60C U67A, the self-cleavage was 0.79. To A35U A45G A64U G73A U78C belongs 0.18.

For the variant C34U C40G A45U U49A, the self-cleavage came out at 0.09. To A35G C37A A64G U74C belongs 1.12. Turning to A35G A64G A77G, the self-cleavage turned out to be 1.27. As for C34U U54A U80C, the figure is 0.61; as for A35G A45G A64G A77U, 1.28; as for A35G C40A A56G, 0.47. To C34U C44U U54C belongs 0.13; to A35G U49C G52A, 1.09.

For A35G A45G A64U U74A, the self-cleavage was 1.11. Consider A35U A45G A47G U72C, for which the self-cleavage was found to be 0.35. Take A35G A45U U72A: the self-cleavage is 0.79. To A35G U51C U74C belongs 1.27. To A35C U54A A65G A77G belongs 0.2. To A35G A45U A64G belongs 1; to A35G U51A U60C, 1.08; to C34U C39G U60C, 0.06.

As for A35G U41A A47U U48C A56G, the self-cleavage came out at 0.07. As for A35G A45C U54C, the figure is 0.68; as for C34U U60C U69C U76C, 0.09. A35C C39U U69C G70C: the self-cleavage was 0.12. As for A35C U58C U80C, the figure is 0.55; as for A35G C39A A47G A57G A64G C79U, 0.12; as for A35G U48C U72C G73A U76C U80C, 1.24. In the case of A35G U72A U74C, the self-cleavage came to 1.31. A35G A57U U60A: the self-cleavage was determined as 0.5.

Take A35G U67A U80C: the self-cleavage was found to be 1.48. For the variant A35G A45U U54A U60C A65G, the self-cleavage was found to be 0.61. As for A35G U54C U67A, the figure is 0.72; as for A35G U51C U54C A57G U58C G73A, 0.72. To A35G G36A C40U U78C belongs 0.31; to A35G C40A A77G, 0.3. To A35C U51A A56G belongs 0.47; to A35G U49C A56G C62U, 0.13. Turning to A35G U49A U72A, the self-cleavage was found to be 0.92. To A35C U58C A65G U80C belongs 0.19.

A35G A56U U67C C71U: the self-cleavage is 0.66. To A35C U54A A64G belongs 0.23; to A35G C38U U41A C50G C79A, 0.26.

Turning to A35G U41A U49C A56U U67A, the self-cleavage came to 0.1. For the variant A35G C38A G42A A45G, the self-cleavage turned out to be 0.24. With A35G U58C U69A, the self-cleavage is 0.79. To A35C A64G U78C U80C belongs 0.16; to A35G G53C U69A, 1.17.

In the case of A35C U49C U51A, the self-cleavage is 0.65. As for A35G A56G U58C, the figure is 0.73; as for A35G A56G U58G, 1.04; as for C34U U41A U51A U69C, 0.06. To A35G A56G U80C belongs 1.37. A35G A56G U80A: the self-cleavage is 1.33. As for A35G A45G U66A, the self-cleavage came out at 1.17.

Take A35G A45G U66C: the self-cleavage stood at 1.03.

Regarding A35G U43C G70C, the self-cleavage stood at 0.2. Take C34U U43C A77C: the self-cleavage was determined as 0.11.

In the case of A35G U51C U67C U74C U80C, the self-cleavage amounted to 0.92. On to A35G U43A U60C, for which the self-cleavage was determined as 0.83. A35G G42A A45U U60C: the self-cleavage is 0.19.

As for A35G U43C G46A A56G, the self-cleavage came to 0.17. To A35G U51A A56G A57C belongs 0.85; to A35G U41C G52A U54A G63A U67C, 0.67; to A35G C37G U43A U51C U74C U80C, 0.87. A35G U66C U69A: the self-cleavage was 0.71. Take A35G U43C A45U: the self-cleavage amounted to 0.58. With C34U A65G U72C, the self-cleavage came to 0.16. Take A35G A57U U78C: the self-cleavage was determined as 1.22.

As for A35G A65G U69A, the self-cleavage was determined as 0.7. Regarding A35G U51C U66C A77G, the self-cleavage was 1.11. As for A35C A64G U66C, the figure is 0.1; as for A35G U49A G61A A64U, 0.31; as for A35G A47U A64G A65G U67C C68U, 0.14. As to A35G A56U U69A, the self-cleavage came to 0.96. As for A35G A56U U69C, the figure is 0.7; as for A35C U58C U67C, 0.17; as for A35G U60C U78C, 1.03. To A35G A56G U58A U69A G73A belongs 0.66; to A35C U41C G61C U80G, 0.32; to A35G U49C U69C, 0.45.

Regarding A35G U43A A56U, the self-cleavage was 1.41. To A35C U43C A45G U67C A75G belongs 0.05.

A35G A56G U69G U74C: the self-cleavage is 1.25. As for A35G U41A U43G, the figure is 0.25; as for A35G U51A A77G, 1.28.

A35G U43C U69C U76A U80A: the self-cleavage was determined as 0.9. Consider A35G C38A C71A G73A, for which the self-cleavage was 0.65. As for A35G U58C A64G, the figure is 1.38; as for A35C U43G U54A U60A G63A U78A, 0.07; as for A35G C39A A47G U54A, 0.63.

On to A35C U43C A57U, for which the self-cleavage was 0.15. As to A35G A45C A64U U76C U78C, the self-cleavage was 0.2. Turning to A35G U41A U54C A56U, the self-cleavage was 0.1. In the case of A35G C68A C71A U78C, the self-cleavage is 0.93. A35G C37A U54G A75G: the self-cleavage worked out at 0.6.

On to A35G U51A A64G U80C, for which the self-cleavage came out at 1.27. As for A35G U48C A56G U58C U67C, the figure is 0.41. Turning to A35G U43C A56G, the self-cleavage is 1.06. To A35G G52C U54G belongs 1.28; to A35G A45G U72A, 0.62.

Take C34U G53A A56G: the self-cleavage amounted to 0.42.

Take A35G U41G A64G U72C: the self-cleavage was determined as 0.38. As for A35G A56G U72C, the self-cleavage turned out to be 1.22. To A35C C37U G61A belongs 0.13.

Regarding C34U U41A U58A U60A A77C, the self-cleavage is 0.08.

For the variant A35G G52A U72C U78C, the self-cleavage turned out to be 1.44. As to A35G A65G U72C, the self-cleavage was determined as 1.06.

As for A35G A45G A56G U76A, the self-cleavage worked out at 1.24. For the variant A35G A45G U78C, the self-cleavage worked out at 1.4. To A35G G46A A64G belongs 1.13; to A35G U49C U76C U78C, 1.09. In the case of A35G A45C G53C, the self-cleavage came to 0.67. To A35G A56G A65U belongs 0.84; to A35G C40U U49C A56G A65G, 0.81; to A35G C37G U43C C79U, 0.63. To A35G U43C U54C A64U belongs 0.5. As for A35G A45G U58C U66C U78C, the figure is 0.49.

With A35G U41C U69C, the self-cleavage is 1.06. For A35G U67A U72C, the self-cleavage was found to be 1.21. To A35G C40A A47G A64U belongs 0.14. Take A35G A65G U78A: the self-cleavage is 1.27. As for A35G C62U U80A, the figure is 0.17. On to A35G A57U U58C U78C, for which the self-cleavage is 0.71.
